Test results as given in PubChem BioAssay AID488969 (Vanderbilt High Throughput Screening Facility, 2010).
Over roughly 110,000 compounds, “z-score” has its median near -0.1; the highest 2% begin near 2. This is one part of the list. Calls of active or inactive are those of the source.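 How the source made its calls: active means z-score in the third read window above 3 or below -3; inactive means the rest.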

What follows are compounds tested against Metabotropic glutamate receptor 8 (Rattus norvegicus) (UniProt P70579) (assay: mGluR8 Gi/Go-coupled signaling modulation – cell-based, rat, thallium flux, HTS, primary screen (AID 488969)). Conditions: HEK293 rat mGluR8, GIRK (G protein-gated inwardly rectifying potassium channel) thallium flux, FluoZin2; at 10 µM; stronger effect = higher value; submaximal glutamate (EC20) added with thallium.
Sequence of UniProt P70579 (P70579 whole entry, looked up): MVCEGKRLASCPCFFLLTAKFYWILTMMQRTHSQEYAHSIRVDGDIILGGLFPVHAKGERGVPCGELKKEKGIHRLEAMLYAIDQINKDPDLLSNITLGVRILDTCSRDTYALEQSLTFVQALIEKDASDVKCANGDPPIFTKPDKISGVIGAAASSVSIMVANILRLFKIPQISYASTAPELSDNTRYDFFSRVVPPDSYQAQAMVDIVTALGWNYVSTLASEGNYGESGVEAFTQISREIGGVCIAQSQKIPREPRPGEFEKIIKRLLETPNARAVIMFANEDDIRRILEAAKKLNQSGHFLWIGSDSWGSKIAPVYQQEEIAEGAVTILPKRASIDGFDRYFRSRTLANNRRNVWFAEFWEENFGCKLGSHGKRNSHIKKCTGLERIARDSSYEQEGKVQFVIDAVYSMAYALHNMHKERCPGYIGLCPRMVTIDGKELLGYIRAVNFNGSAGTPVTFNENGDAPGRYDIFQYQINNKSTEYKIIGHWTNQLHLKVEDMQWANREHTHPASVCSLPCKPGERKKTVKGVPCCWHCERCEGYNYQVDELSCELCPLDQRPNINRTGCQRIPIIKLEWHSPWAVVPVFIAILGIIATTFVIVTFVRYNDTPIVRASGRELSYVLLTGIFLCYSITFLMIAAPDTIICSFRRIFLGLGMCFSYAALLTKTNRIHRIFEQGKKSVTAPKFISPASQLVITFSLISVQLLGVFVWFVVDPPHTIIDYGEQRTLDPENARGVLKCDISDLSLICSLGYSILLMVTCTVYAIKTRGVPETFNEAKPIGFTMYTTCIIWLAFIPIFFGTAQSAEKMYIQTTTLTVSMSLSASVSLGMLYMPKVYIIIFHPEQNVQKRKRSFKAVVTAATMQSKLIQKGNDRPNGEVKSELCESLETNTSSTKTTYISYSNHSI

SMILES	z-score
FCCCOc1ccc(/C=N/OCc2c(Cl)cccc2Cl)cc1	-0.198
N#CC1=C(N)Nc2ncnn2C1c1ccc(F)cc1 (stereo not given)	0.149
CCOC(=O)c1c(NC(=O)CN2CCN(C(=O)c3ccco3)CC2)sc2c1CCCC2	-0.407
CC(C)(C)OC(=O)Cn1c(=O)cnc2ccccc21	0.105
CC1CC(C)CN(C(=O)c2ccc3c(c2NCCO)C(=O)c2ccccc2C3=O)C1 (stereo not given)	-0.365
CCOC(=O)c1c(NC(=O)CSc2nnnn2-c2ccc(OC)cc2)sc(C)c1C	-0.106
Cc1nn(Cc2ccccc2)c2sc(C(=O)NCc3cccnc3)cc12	0.369
CC1(C)Cc2nc3sc4c(SCC(=O)NC(c5ccccc5)c5ccccc5)ncnc4c3cc2CO1	0.0674
Cc1[nH]n(-c2ccc(Cl)cc2)c(=O)c1C=Nc1ccc(S(=O)(=O)N2CCOCC2)cc1	-0.806
CCCCOc1ccc(C(=O)NCC2(c3ccccc3)CCOCC2)cc1	-0.0411
Cc1cc(Nc2ccc(F)cc2)n2nc(C)nc2n1	0.137
CC(C)(CCl)C(=O)Nc1ccc(Sc2ccc(F)cc2)cc1	0.562
CCn1c2ccccc2c2nnc(SCC(=O)Nc3c(C)n(C)n(-c4ccccc4)c3=O)nc21	-0.616
CCOC(=O)c1cc2sccc2n1Cc1ccccc1	0.0394
O=C1OC(c2ccccc2)=C/C1=C\N1CCOCC1	0.172
CCOC(=O)c1cnn2c(N)c(C#N)nnc12	0.128
Cc1nc2nc(COc3ccccc3)[nH]n2c(=O)c1Cl	-0.0144
COc1ccc(OCCOC(=O)c2cccc(-n3cnnn3)c2)cc1	-0.341
Cn1c(=O)c2ncn(CC(=O)Nc3cc(C(F)(F)F)ccc3N3CCOCC3)c2n(C)c1=O	-0.158
CS(=O)(=O)N(Cc1ccccc1)c1ccc(C(=O)Nc2ccc3c(c2)OCO3)cc1	-0.0352
COc1ccc(-c2c(C)nn3c(N4CCN(Cc5ccccc5)CC4)cc(C)nc23)cc1OC	-0.3
Cn1c(-c2ccc(F)cc2)cnc1SCC(=O)NCc1ccco1	1.12

SMILES	z-score
CCOC(=O)C1=NN(c2ccc(C)cc2)C2(S1)SC(C(C)=O)=C(C)N2c1ccccc1 (stereo not given)	0.0798
O=C(CNC(=O)c1cccc(F)c1)OCC(=O)N1CCCCC1	-0.0833
CCOC(=O)N1CCC(Nc2c(NCCN3CCN(c4ccccc4F)CC3)c(=O)c2=O)CC1	-0.365
COc1ccc(/C(C)=N/OCC(=O)Nc2nc3ccccc3s2)cc1	-0.36
Cn1ncc([N+](=O)[O-])c1C(=O)Nc1ccn(Cc2ccccc2F)n1	-0.0448
CCn1c(COc2ccc(=O)n(-c3ccccc3)n2)nnc1SCc1ccccc1	-0.582
COc1ccc(NC(=O)NCc2cccn2C)c(OC)c1	-0.0951
O=C(Nc1ccc(F)c(Cl)c1)C1CCN(S(=O)(=O)c2cccnc2)CC1	-0.424
COc1ccc(CNC(=O)C2C3C=CC4(CN(Cc5cccnc5)C(=O)C24)O3)cc1 (stereo not given)	-0.0389
Cc1ccc(-c2csc(NC(=O)CSC3=NCCS3)n2)cc1	0.0209
COc1ccc2c(c1)Cc1sc(NC(=O)c3ccccc3)nc1-2	0.132
O=C(CSc1nnc(Cc2ccccc2)n1-c1ccc(F)cc1)N1CCOCC1	0.477
Cc1ccc(Cn2cc(/C=N/Nc3ccc([N+](=O)[O-])cn3)c3ccccc32)cc1	0.407
COc1cccc(-c2nnn(CC(=O)O)n2)c1	0.0347
CCOC(=O)CSc1nc2sc3c(c2c(=O)[nH]1)CC(C)(CC)OC3 (stereo not given)	-0.983
CN1C(=O)N(C)C2CC1N(C)C(=O)N2C	-0.227
COc1ccc(-c2cc(C(F)F)nc(-n3nc(C)cc3C)n2)cc1	-0.32
COc1ccccc1N1CCN(C(=O)c2cn(-c3ccccc3)nc2-c2cccnc2)CC1	-0.689
COc1ccc(-c2nc(-c3cccs3)c(-c3cccs3)[nH]2)cc1OC	-0.537
N#CCSc1nc(N)c(C#N)c(C2CCCCC2)c1C#N	-0.112
NS(=O)(=O)c1ccc(NC(=O)C2COc3ccccc3O2)cc1 (stereo not given)	active: -3.14
COCCNC(=O)C(=O)Nc1cccc(Br)c1	-0.149

SMILES	z-score
COc1ccc(Br)cc1/C=N/NC(=O)c1nc(-c2ccccc2)n2c1CCCCC2	-0.0756
O=C(C1CCN(S(=O)(=O)c2ccc(Br)s2)CC1)N1CCc2ccccc21	-0.362
Cc1cccc(OCc2nnc(SCC(=O)NCCc3ccccc3)o2)c1	0.313
Cc1noc(C)c1CSCC(=O)NC1=NCCS1	-0.333
COc1cc(/C=C/C(=O)Nc2cc(C(F)(F)F)ccc2Cl)cc(OC)c1OC	-0.338
COc1ccc(/C=N/Nc2cc(C)nc(N)n2)cc1	0.00932
CCOC(=O)c1c(-c2ccc(Cl)cc2)c(C#N)c(=O)n(N)c1N	-0.497
O=C1OC(N2CCN(Cc3ccccc3)CC2)c2ccccc21 (stereo not given)	0.332
COc1ccc(-c2ncncc2-c2csc(C)n2)c(O)c1OC	-0.116
CCOC(=O)C1=C(CSc2nc3c(cc2C#N)CCC3)OC(N)=C(C#N)C1c1ccccc1 (stereo not given)	0.259
CCc1nnc(NC(=O)[C@@H](NC(=O)c2cccc(S(=O)(=O)N(CC)CC)c2)C(C)C)s1	-1.2
COC(=O)c1cc(NC(=O)c2ccc(Cn3cc(Cl)cn3)o2)cc(C(=O)OC)c1	-0.37
COc1ccccc1CNC(=O)C1CC(c2c(Cl)cccc2Cl)=NO1 (stereo not given)	-0.231
Cc1cc(C)n(Cc2nc3ccccc3n2C)n1	-0.157
Cc1ccc[n+](C(C)C(=O)Nc2ccc(C)c([N+](=O)[O-])c2)c1 (stereo not given)	-0.0738
CCOC(=O)c1cc(-c2ccc3c(c2)OCO3)nc2onc(C)c12	0.323
CCN1CCN(C(=O)c2cc3cc4ccc(OC)cc4nc3s2)CC1	0.148
COCCCn1c(=N)c(C(=O)NCc2ccc3c(c2)OCO3)cc2c(=O)n3ccccc3nc21	-0.494
NC(=O)c1ccc(NC(=O)COC(=O)CC(NC(=O)c2ccccc2Cl)c2ccccc2)cc1 (stereo not given)	1.26
Cc1ccc(/C([O-])=C(/C(=S)NCc2ccco2)[n+]2ccccc2)cc1	-0.112
CSCCNC(=O)c1ccc(C(C)(C)C)cc1	-0.121
Cc1ccc(C(C(=O)NC2CCCC2)N(Cc2cccs2)C(=O)c2csnn2)o1 (stereo not given)	0.328

SMILES	z-score
O=C(Nc1ccc(Cl)cn1)c1ccc2ccccc2n1	-0.314
CCN1CCCC1CNC(=O)C(=O)Nc1ccccc1OC (stereo not given)	0.00956
CC1CCCCN1CC(=O)NC(=O)NCc1ccccc1 (stereo not given)	-0.261
COc1ccc(S(=O)(=O)N2CCOCC2)cc1OC	0.00146
COc1ccc(NC(=O)CN(c2ccc(C)cc2)S(C)(=O)=O)c(OC)c1	-0.155
Nc1cc(Cl)nc(N/N=C/c2ccc([N+](=O)[O-])cc2)n1	-0.0913
CCC1(CC)Cc2ccccc2-c2nc(NCCO)[nH]c(=O)c21	-0.365
CCn1cc(C(=O)NCc2ccccc2)c(=O)c2cc(F)c(N3CCN(C(=O)c4ccco4)CC3)cc21	-0.668
CN1CCN(C(=S)c2ccc(N(C)C)cc2)CC1	-0.222
CCOC(=O)CC(=O)CSc1nc(N)c(C#N)c(-c2ccc(F)cc2)c1C#N	-0.328
O=C(NNc1cccc(Cl)n1)Nc1ccccc1Cl	0.0179
COc1ccc(OC)c(C2NC(=O)NC(C)=C2C(=O)Nc2ccc(C)cc2C)c1 (stereo not given)	0.112
Cc1cccc(CC2SC(N3CCN(c4ccccc4)CC3)=NC2=O)c1 (stereo not given)	-0.218
O=C(CSc1ncnc2c1cnn2-c1ccccc1)Nc1ccccc1	-0.0107
CCOC(=O)c1c(/N=C/C2C(=O)CCCC2=O)sc(C)c1C	-0.157
Cc1ccc(C(=O)N(Cc2nc(-c3ccc(C)cc3)no2)C(C)C)cc1	0.444
COc1cccc(NC(=O)Nc2cc(C)ccc2F)c1	-0.527
CCOC(=O)c1nc(NCc2cccnc2)c2ccccc2n1	-0.241
CSc1nc(Oc2ccc3ccccc3c2)c2ccccc2n1	-0.191
O=C(CCSc1nc(-c2ccco2)cc(C(F)(F)F)n1)N1CCN(c2ccccc2)CC1	-0.0512
COCCCN(CCCN)Cc1ccco1	0.224
CCOc1ccc(C2Sc3ccccc3NC3=C2C(=O)OC3)cc1 (stereo not given)	-0.1

SMILES	z-score
CC(=O)Nc1cccc(NC(=O)CSc2ccc(C(F)(F)F)cc2[N+](=O)[O-])c1	-0.443
CCOc1ccc(-c2nc(C#N)c(NCC3CCCO3)o2)cc1 (stereo not given)	-0.471
COc1ccc(/C=C(/NC(=O)c2ccccc2)C(=O)N/N=C/c2ccc3c(c2)OCO3)cc1OC	-0.129
CC1=C(C)/C(=N\OC(=O)/C=C/c2ccccc2)C=CC1=O	0.0984
COc1ccccc1C1(CC(=O)Nc2nccs2)CCOC(C(C)C)C1 (stereo not given)	-0.148
O=C(CSc1ccccc1Cl)NC1CCCc2ccccc21 (stereo not given)	-0.386
C=CCSc1nnc(-c2cc(Br)ccc2N)c(=O)[nH]1	-0.306
CCCc1nc(-c2cc3ccc(C)cc3[nH]c2=O)no1	0.0329
CCOC(=O)c1ccc(S(=O)(=O)NCC(c2ccc(N(C)C)cc2)c2c[nH]c3ccccc23)cc1 (stereo not given)	0.201
COc1ccc(/C=N/NC(=O)c2nc(-c3ccccc3)n(-c3ccccc3)n2)cc1	-0.277
CC(=O)C1=C(O)C(=O)N(CCc2ccccc2)C1c1ccccc1[N+](=O)[O-] (stereo not given)	-0.805
Cc1ccnc2nc(C(=O)OCC(=O)NCCc3ccc(Cl)cc3)nn12	-0.304
Clc1ccc(-c2cc(COc3ccccc3)no2)cc1Cl	-0.494
Nn1c(CN2CCCCC2)nc2ccccc2c1=O	0.926
COCCNCC(=O)NCC12CC3CC(CC(C3)C1)C2	-0.127
CCOC(=O)c1ccccc1NC(=O)COc1ccccc1	-0.516
Cc1occc1C(=O)Nc1sc2c(c1C(N)=O)CCCCC2	-1.05
Cc1ccc(OCC(=O)Nc2ccc(-c3nc4ncccc4o3)cc2)cc1	0.339
CN(C)CCCn1c(SCC(=O)Nc2sc3c(c2C#N)CCCC3)nnc1-c1ccncc1	-0.999
Cc1ccc(OCCCn2c(CO)nc3ccccc32)cc1	-0.0846
Nc1cc(-c2ccccc2)nn1Cc1ccc(Cl)cc1	-0.279
CCC(=O)OCC(=O)Nc1cc(C)c(C)cc1[N+](=O)[O-]	-0.181
